This is one part of the list. At the low end of the ranking the order means little.

The subject of the experiment is MYC (p64) + MAX (p21), in MYC:MAX. The experiment can be described thus: protein-binding microarray (anti-MAX antibody). Particulars: PBM: 15 mM Tris-HCl pH 7.5, 100 mM KCl, 0.075% NP40, 7.5 mM beta-mercaptoethanol, 375 ng/ul BSA, 8 ng/ul poly(dA-dT):(dA-dT), 550 ng complex, 60 min, room …; high values mean tight binding; double strand, one strand shown; sequences stand for … in CCGGC…TTAATAGCTAAGATTACTATATCGACG
In the case of TGAAGACGGGTA, the binding signal (log2 normalized fluorescence) amounted to 0.0235.

In the case of TACTACGTGGTA, the binding signal (log2 normalized fluorescence) amounted to 0.34.

On to TGATCGCAAGTA, for which the binding signal (log2 normalized fluorescence) was found to be 0.136.

Consider TGAGCTGATGTA, for which the binding signal (log2 normalized fluorescence) was found to be 0.0743.

With TGAATATACGTA, the binding signal (log2 normalized fluorescence) was determined as 0.0278.

With CGCAACGTGGTA, the binding signal (log2 normalized fluorescence) was determined as 0.645.

With TGAGGACATGTA, the binding signal (log2 normalized fluorescence) stood at 0.259.

Take TGAGTTTTCGTA: the binding signal (log2 normalized fluorescence) was determined as 0.0154.

On to TGATAGCCAGTA, for which the binding signal (log2 normalized fluorescence) was -0.254.

For the sequence TGACATCCAGTA, the binding signal (log2 normalized fluorescence) was determined as 0.16.

Consider TGAAGCCTCGTA, for which the binding signal (log2 normalized fluorescence) amounted to 0.23.

For the sequence TGACAAACAGTA, the binding signal (log2 normalized fluorescence) is 0.151.

For the sequence TGAACATCTGTA, the binding signal (log2 normalized fluorescence) is 0.392.

Turning to TGAGGTAAGGTA, the binding signal (log2 normalized fluorescence) was -0.105.

As for TGATCAGTTGTA, the binding signal (log2 normalized fluorescence) was -0.0212.

Turning to TAATACGGGGTA, the binding signal (log2 normalized fluorescence) was found to be 0.309.

For the sequence TGAAACCGGGTA, the binding signal (log2 normalized fluorescence) was determined as 0.097.

TGAATGTGAGTA: the binding signal (log2 normalized fluorescence) was determined as 0.216.

Regarding TGAAGACACGTA, the binding signal (log2 normalized fluorescence) came out at 0.229.

For TGACGCGCAGTA, the binding signal (log2 normalized fluorescence) is 0.215.

Turning to TGACAGGAGGCA, the binding signal (log2 normalized fluorescence) amounted to 0.194.

With TCAGTCGTGGTA, the binding signal (log2 normalized fluorescence) was found to be 0.323.

As to TCACAAGTGGTA, the binding signal (log2 normalized fluorescence) worked out at 0.366.

Regarding TGCCACGTCGCA, the binding signal (log2 normalized fluorescence) turned out to be 0.356.

For TGAACCGGTGTA, the binding signal (log2 normalized fluorescence) amounted to 0.172.

With TGACATTACGTA, the binding signal (log2 normalized fluorescence) worked out at 0.132.

TGAATACCGGTA: the binding signal (log2 normalized fluorescence) was -0.0714.

As for TGAACACTTGTA, the binding signal (log2 normalized fluorescence) was 0.267.

With TGATGGTAGGTA, the binding signal (log2 normalized fluorescence) worked out at 0.284.

As to TGATCATCTGTA, the binding signal (log2 normalized fluorescence) was determined as 0.173.

For the sequence TGAGTACATGTA, the binding signal (log2 normalized fluorescence) worked out at 0.33.

Consider TGACGTTATGTA, for which the binding signal (log2 normalized fluorescence) worked out at 0.0295.

Take TGAGCTAGCGTA: the binding signal (log2 normalized fluorescence) was -0.239.

As to TGAACGGTGGTA, the binding signal (log2 normalized fluorescence) was 0.161.

In the case of TGAACCCGCGTA, the binding signal (log2 normalized fluorescence) amounted to 0.279.

For TGATCACACGTA, the binding signal (log2 normalized fluorescence) worked out at 0.407.

TGAGGATTTGTA: the binding signal (log2 normalized fluorescence) is -0.272.

Regarding TGACAGTCTGTA, the binding signal (log2 normalized fluorescence) worked out at 0.0688.

For the sequence TGATAGGTCGTA, the binding signal (log2 normalized fluorescence) is -0.161.

In the case of TGAGTTGAAGTA, the binding signal (log2 normalized fluorescence) was -0.273.

Turning to TGATATGGTGTA, the binding signal (log2 normalized fluorescence) worked out at 0.218.

CGACACGTTGTA: the binding signal (log2 normalized fluorescence) amounted to 0.656.

With TGAATACCCGTA, the binding signal (log2 normalized fluorescence) worked out at 0.0211.

With TGACGTTACGTA, the binding signal (log2 normalized fluorescence) was 0.123.

Consider TGACTACAGGTA, for which the binding signal (log2 normalized fluorescence) is 0.0271.

Consider TGATCTTGGGTA, for which the binding signal (log2 normalized fluorescence) is -0.213.

On to TGACACGTCTAA, for which the binding signal (log2 normalized fluorescence) amounted to 0.197.

Turning to TGATGGCTCGTA, the binding signal (log2 normalized fluorescence) came out at 0.103.

For the sequence TGATATGTCGTA, the binding signal (log2 normalized fluorescence) is 0.0678.

For TGATTCAGGGTA, the binding signal (log2 normalized fluorescence) is -0.163.

As to TGAGTTTGAGTA, the binding signal (log2 normalized fluorescence) is -0.31.

On to TGATATTACGTA, for which the binding signal (log2 normalized fluorescence) is 0.053.

TGACAGTGGGTA: the binding signal (log2 normalized fluorescence) is -0.0618.

As to TGACCGTATGTA, the binding signal (log2 normalized fluorescence) came out at 0.249.

As for TGATACTTGGTT, the binding signal (log2 normalized fluorescence) came to 0.0375.

In the case of TGAGTTTCGGTA, the binding signal (log2 normalized fluorescence) is -0.062.

AGACACGTAGTA: the binding signal (log2 normalized fluorescence) was determined as 0.616.

Regarding TGAAAAATCGTA, the binding signal (log2 normalized fluorescence) was -0.0731.

On to TGAGCCCCTGTA, for which the binding signal (log2 normalized fluorescence) is -0.043.

Consider TGACGAAGAGTA, for which the binding signal (log2 normalized fluorescence) is -0.165.

On to TGATTCCCCGTA, for which the binding signal (log2 normalized fluorescence) worked out at 0.0379.

Turning to TGACGTATAGTA, the binding signal (log2 normalized fluorescence) was -0.012.

Turning to TGAAATCCCGTA, the binding signal (log2 normalized fluorescence) came out at 0.0189.

On to TGAGGTTAGGTA, for which the binding signal (log2 normalized fluorescence) came to 0.0168.

Turning to TGAAGTACTGTA, the binding signal (log2 normalized fluorescence) amounted to 0.0078.

For TGACTATGGGTA, the binding signal (log2 normalized fluorescence) was -0.031.

As to TGATACTTCGTA, the binding signal (log2 normalized fluorescence) was -0.111.

For the sequence TGATTTGAGGTA, the binding signal (log2 normalized fluorescence) is -0.112.

For the sequence TGAAGCATCGTA, the binding signal (log2 normalized fluorescence) was 0.192.

Regarding TGACCCCTGGTA, the binding signal (log2 normalized fluorescence) was 0.17.

With TGAGAGGGAGTA, the binding signal (log2 normalized fluorescence) is -0.0996.

Take TGACACTGAGTA: the binding signal (log2 normalized fluorescence) was -0.109.

As for TGAGCTCTAGTA, the binding signal (log2 normalized fluorescence) is -0.139.

Take TGAAGCCGTGTA: the binding signal (log2 normalized fluorescence) came to 0.27.

On to TGAATATTCGTA, for which the binding signal (log2 normalized fluorescence) was -0.137.

TGAACTCTGGTA: the binding signal (log2 normalized fluorescence) is -0.0337.

TGAGTAAGCGTA: the binding signal (log2 normalized fluorescence) was -0.0992.

Turning to TGAGACGCTGTA, the binding signal (log2 normalized fluorescence) was -0.0254.

Regarding TGATACACGGTA, the binding signal (log2 normalized fluorescence) was 0.262.

As to TGACACGCGGTC, the binding signal (log2 normalized fluorescence) was found to be 1.03.

Take TGAAAATTTGTA: the binding signal (log2 normalized fluorescence) was -0.238.

For the sequence TGAACAGCTGTA, the binding signal (log2 normalized fluorescence) was found to be 0.249.

Turning to TGAACCAACGTA, the binding signal (log2 normalized fluorescence) is 0.302.

Turning to TGAAACGTGGAA, the binding signal (log2 normalized fluorescence) was 0.519.

TGAAAATGAGTA: the binding signal (log2 normalized fluorescence) came out at 0.215.

For TGATACTTGGTA, the binding signal (log2 normalized fluorescence) worked out at 0.0376.

For the sequence TGACACTTGCTA, the binding signal (log2 normalized fluorescence) was 0.538.

Values taken from article PMC5515408.
